Among all 410,000 compounds or so, about 6,400 (1.6%) were called active. Inconclusive results, whose numbers are uncertain, are shown with a selection of clear calls. The call rests on the fitted dose curve; in most records, active means well fitted inhibition curve with a large enough effect; inconclusive means small, poorly fitted or top-dose-only effect; inactive means no such curve, though single readings can be large or run the other way. Potencies of inconclusive entries are left out as doubtful fits.
The compounds below were run against Glucagon-like peptide 1 receptor (Homo sapiens) (UniProt P43220) (assay: qHTS of GLP-1 Receptor Inverse Agonists (Inhibition Mode)). Conditions: HEK293 GLP-1R CRE-luciferase, luminescence, 24 h; Potency: GLP-1R form is constitutively active unless noted; series mostly up to 38.3 µM.
Sequence of UniProt P43220 (P43220 whole entry, looked up): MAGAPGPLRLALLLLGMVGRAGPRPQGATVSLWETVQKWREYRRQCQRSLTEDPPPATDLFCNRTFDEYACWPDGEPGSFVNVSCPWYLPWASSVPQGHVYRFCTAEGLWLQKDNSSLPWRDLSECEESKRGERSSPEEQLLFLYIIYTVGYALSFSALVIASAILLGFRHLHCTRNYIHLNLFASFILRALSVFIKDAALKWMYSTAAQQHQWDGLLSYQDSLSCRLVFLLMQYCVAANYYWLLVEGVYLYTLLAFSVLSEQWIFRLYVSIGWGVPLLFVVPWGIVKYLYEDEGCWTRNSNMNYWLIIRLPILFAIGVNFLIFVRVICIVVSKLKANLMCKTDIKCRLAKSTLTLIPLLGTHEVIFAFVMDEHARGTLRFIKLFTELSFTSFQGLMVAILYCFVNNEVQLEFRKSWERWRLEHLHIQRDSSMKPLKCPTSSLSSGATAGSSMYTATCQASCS
Method in brief: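 Stable HEK293 clone (constitutively active GLP-1R + cAMP-response luciferase); 200 cells/uL plated, 12 h pre-culture, compound 24 hr, 37 deg C/5% CO2; detection reagent 12 min RT; luminescence.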
In the case of `COc1ccc(-c2coc3c(C(=O)Nc4cc(OC)c(OC)c(OC)c4)cccc23)c(C)c1`, the Potency is reported as active: 4.47 µM.
For `COc1cc(/C=C/[N+](=O)[O-])ccc1O`, the Potency was inconclusive [inhibitor, single point].
`COc1cccc(C(=O)C2CCCN(Cc3ccccn3)C2)c1` (configuration not stated) was tested, and the Potency was inconclusive [inhibitor, partial curve, poor fit].
In the case of `Cn1cc(C(=O)c2ccccc2)c2ccccc21`, the Potency is reported as inconclusive [inhibitor, single point].
With `CCN1CCN(c2nc3ccccc3s2)CC1` the Potency was inconclusive [inhibitor, single point].
`O=c1c2ccccc2nc(-c2ccccc2)n1-n1cccc1` was tested, and the Potency was inconclusive [inhibitor, partial curve, poor fit].
With `C=CCOC(=O)C1C(C(=O)O)C2(Cl)C(Cl)=C(Cl)C1(Cl)C2(Cl)Cl` (configuration not stated) the Potency was inconclusive [inhibitor, partial curve, poor fit].
For `CCC(C)n1c(O)c(C=Nc2cccc(C(F)(F)F)c2)c(=O)[nH]c1=S` (configuration not stated), the Potency was inconclusive [inhibitor, single point].
`CCOc1ccc(-c2cc(C(=O)N3CCN(c4cccc(C(F)(F)F)c4)CC3)c3ccccc3n2)cc1` was tested, and the Potency was inconclusive [inhibitor, full curve, poor fit].
For `CC(=O)C1(O)CCC2C3CCC4=C(Cl)C(=O)CCC4(C)C3CCC21C` (configuration not stated), the Potency was “inactive”.
In the case of `C[C@H]1[C@H](OC(=O)CCC(=O)NCc2ccc(C(=O)O)cc2)O[C@@H]2O[C@@]3(C)CC[C@H]4[C@H](C)CC[C@@H]1C24OO3`, the Potency is reported as inconclusive [inhibitor, single point].
For `Cc1ccsc1C(=O)C1CCCN(Cc2cnn(C)c2)C1` (configuration not stated), the Potency was inconclusive [inhibitor, partial curve, poor fit].
`O=C(c1ccccc1F)c1cn(Cc2ccccc2)c2ccccc12` was tested, and the Potency was inconclusive [inhibitor, single point].
In the case of `O=[N+]([O-])c1ccc(Nc2ccccc2)cc1`, the Potency is reported as inconclusive [inhibitor, single point].
For `COc1ccccc1NC(=O)N(Cc1ccc2c(c1)OCO2)C1CCN(Cc2ccccc2)CC1`, the Potency was inconclusive [inhibitor, single point].
In the case of `O=C(Nc1ccc(OC(F)(F)F)cc1)Oc1ccccc1N1CCCCC1`, the Potency is reported as inconclusive [inhibitor, partial curve].
For `O=C(N/N=C/c1c(O)n(C2CC2)c(=S)[nH]c1=O)c1ccccc1O`, the Potency was “inactive”.
For `O=c1nc(/C=C/c2ccc(Cl)cc2Cl)cc(C(F)(F)F)[nH]1`, the Potency was active: 3.98 µM [setting not given].
For `CCCCC(CC)COCCCN=Cc1c(O)[nH]c(=S)[nH]c1=O` (configuration not stated), the Potency was inconclusive [inhibitor, single point].
`CCC(C)NC(=O)c1c(N)n(Cc2ccc3c(c2)OCO3)c2nc3ccccc3nc12` (configuration not stated) was tested, and the Potency was inconclusive [inhibitor, partial curve, poor fit].
With `COc1ccc(-[n+]2c(-c3ccccc3)cc(-c3ccc(C)cc3)cc2-c2ccccc2)cc1` the Potency was inconclusive [inhibitor, full curve, poor fit].
With `CCC(=NCCc1c[nH]c2ccccc12)c1c(O)n(-c2ccc(C)cc2)c(=O)[nH]c1=O` the Potency was inconclusive [inhibitor, partial curve, poor fit].
With `COC(=O)C1=C(c2cc3ccccc3o2)C[C@@H]2CC[C@H]1N2C(=O)NCc1ccc(F)cc1` the Potency was active: 11.2 µM [setting not given].
In the case of `Oc1ccccc1CN(CCc1ccccc1)Cc1ccccc1`, the Potency is reported as inconclusive [inhibitor, partial curve, poor fit].
In the case of `O=Cc1cn(Cc2cccc([N+](=O)[O-])c2)c2ccccc12`, the Potency is reported as inconclusive [inhibitor, full curve, poor fit].
With `CC1CCCN(CCCNC(=O)c2ccc3c(c2)N(Cc2cccc(Cl)c2)C(=O)c2ccccc2S3=O)C1` (configuration not stated) the Potency was inconclusive [inhibitor, single point].
In the case of `COC(=O)C1=C(c2ccc(F)cc2OCc2ccccc2)C[C@@H]2CC[C@H]1N2C(=O)NCCOc1ccc(OC)cc1`, the Potency is reported as inconclusive [inhibitor, partial curve, poor fit].
For `Cc1c(Cl)cccc1NC(=O)CN1C(=O)C(C)N=C(c2ccccc2)c2ccccc21` (configuration not stated), the Potency was inconclusive [inhibitor, single point].
`Cc1cccc(-c2nc3ccc(C(=O)N4CCC5(CC4)OCCO5)cc3nc2-c2cccc(C)c2)c1` was tested, and the Potency was inconclusive [inhibitor, partial curve, poor fit].
With `Cc1ccc(Cn2c(C)c3cnn(CC(=O)N4CCC5(CC4)OCCO5)c(=O)c3c2C)cc1` the Potency was inconclusive [inhibitor, partial curve, poor fit].
`COc1cc(OC)c([C@H]2C=C(C)[C@H]3C[C@@H]2C3(C)C)c(OC)c1` was tested, and the Potency was inconclusive [inhibitor, single point].
With `O=C(Nc1ccc(Cl)cc1C(=O)c1ccccc1)c1ccccc1Br` the Potency was inconclusive [inhibitor, single point].
In the case of `CCn1ccnc1CN1CCCC(C(=O)c2ccc(SC)cc2)C1` (configuration not stated), the Potency is reported as inconclusive [inhibitor, single point].
In the case of `O=C(c1cc(F)ccc1F)C1CCCN(Cc2ccc3nonc3c2)C1` (configuration not stated), the Potency is reported as inconclusive [inhibitor, partial curve, poor fit].
For `CCN(CC)S(=O)(=O)c1ccc(NN=C(C#N)C#N)cc1`, the Potency was inconclusive [inhibitor, full curve, poor fit].
With `O=C(c1ccc2c(c1)ncn2C1CCCCC1)N1CCC2(CC1)OCCO2` the Potency was inconclusive [inhibitor, full curve, poor fit].
`COC(=O)C1=C(c2ccc3ccccc3c2)C[C@@H]2CC[C@H]1N2C(=O)NCc1ccc(C(F)(F)F)cc1` was tested, and the Potency was inconclusive [inhibitor, partial curve, poor fit].

Reference: PubChem BioAssay AID624417 (National Center for Advancing Translational Sciences (NCATS), 2012)
Further: nearly all actives have a fitted effect of over 55% in size.
Potency means the concentration at half of the fitted maximal effect; tags describe the fitted curve by direction and shape.
